Hit rate of the full screen: of about 46,000 compounds, about 60 (0.1%) were called active. About 3% were inconclusive and are not listed. The call rests on the fitted dose curve; in most records, active means well fitted inhibition curve with a large enough effect; inconclusive means small, poorly fitted or top-dose-only effect; inactive means no such curve, though single readings can be large or run the other way. This is one part of the list.

Consider 61 compounds from PubChem BioAssay AID1963576 (National Center for Advancing Translational Sciences (NCATS), 2024).

The assay can be described thus: Primary qHTS assay for Inhibitors of ovarian cancer metastasis using an organotypic tumor microenvironment (TME) model. Further: nearly all actives have a fitted effect of over 65% in size.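 On activity change, negative = inhibition: plate controls were DMSO wells for no effect and tomatine positive control wells for full effect.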 To be noted: SKOV3ip1-GFP adhesion/invasion on 3D omental model, fluorescence; series mostly up to 45.8 µM; activity change, negative = inhibition: at the top concentration. A digest of the protocol:
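A 3D layer of primary human omental fibroblasts, mesothelial cells, fibronectin and collagen I, grown 48 hr, received SKOV3ip1-GFP cells in serum-free medium plus compounds at 0.36-46 umol/L. After 2 hr RT and 16 hr 37 C, fixed adherent GFP cells were counted; normalized to DMSO and tomatine.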
As for `Cc1ccc(NC(=O)c2cccc(C(C)(C)C#N)c2)cc1Nc1ccc2ncn(C)c(=O)c2c1`, the “activity change, negative = inhibition” value is inactive: 55.3%.

Consider `Cc1cccc(NC(=O)c2cccc(N3CCCS3(=O)=O)c2)c1`, for which the “activity change, negative = inhibition” value is inactive: -8.55%.

Consider `Cc1ccc(C2CC(=O)n3nc(-c4ccc(F)cc4)nc3S2)cc1` (stereo unspecified), for which the “activity change, negative = inhibition” value was inactive: -0.59%.

`Cc1ccc(Cl)cc1NC(=O)c1sc2nc(C)c(C)c(C)c2c1N`: the “activity change, negative = inhibition” value was inactive: 2.77%.

Turning to `CCOC(=O)c1ccccc1NC(=O)N(Cc1ccc(CC)cc1)Cc1cn[nH]c1-c1ccc(OC)cc1`, the “activity change, negative = inhibition” value was inactive: 0.176%.

With `CCCc1cnc2c(c1SCC(=O)Nc1ccc([N+](=O)[O-])cc1)c(=O)n(C)c(=O)n2C`, the “activity change, negative = inhibition” value was inactive: -2.9%.

On to `COc1ccc(NC(=O)CCS(=O)(=O)c2cc3c(cc2C)NC(=O)CO3)cc1Cl`, for which the outcome was inactive.

Take `COC(=O)c1ccc2c(c1)sc(=NC(=O)c1ccc(S(=O)(=O)N3CCCCC3)cc1)n2C`: the “activity change, negative = inhibition” value is inactive: 4.87%.

On to `COc1cc(NC(=O)Cn2c(-c3ccccc3)cc(C(C)=O)c2C)cc(OC)c1`, for which the call was inactive.

Take `Cc1ccc(NC(=O)Cn2c(=O)n(CCC(=O)N3CCc4ccccc4C3)c(=O)c3ccccc32)c(C)c1`: the compound was called inactive.

Regarding `COc1ccc(C2c3c(-c4ccccc4)n[nH]c3C(=O)N2c2ccc(C(=O)O)cc2)c(OC)c1` (stereo unspecified), the “activity change, negative = inhibition” value is inactive: 11.2%.

For the compound `COc1ccc(-n2nc(C(=O)NCCc3ccc(Cl)cc3)c3c4ccccc4n(C)c3c2=O)cc1`, the “activity change, negative = inhibition” value is inactive: 5.65%.

Consider `Cc1ccc(-c2c(CN3CCN(c4cccc(C)c4C)CC3)csc2C)cc1`, for which the “activity change, negative = inhibition” value was inactive: -3.11%.

`OCCN(CCO)c1nc(N2CCCCC2)c2nc(N(CCO)CCO)nc(N3CCCCC3)c2n1`: the “activity change, negative = inhibition” value was inactive: -9.23%.

With `CC(C)CCn1c(SCc2c(F)cccc2Cl)nc2ccsc2c1=O`, the call was inactive.

Consider `Cc1cn2c(=O)cc(COc3ccc(C(C)(C)C)cc3)nc2s1`, for which the compound was called inactive.

Consider `Cc1cccc(C)c1NC(=O)CSc1nc(-c2cccs2)cc(C(F)(F)F)n1`, for which the call was inactive.

As for `CC(C)NC(=O)CCSc1nc(-c2ccc3c(c2)OCO3)cc(C(F)(F)F)n1`, the “activity change, negative = inhibition” value is inactive: -0.353%.

For `CCOc1ccccc1N(CC)C(=O)c1ccc2c(=O)n3c(nc2c1)CCCCC3`, the “activity change, negative = inhibition” value was inactive: -7.47%.

Take `CN(c1nccc(=O)[nH]1)C1CCN(c2nc3ccccc3n2Cc2ccc(F)cc2)CC1`: the “activity change, negative = inhibition” value is inactive: 12.3%.

Regarding `Nc1nonc1-c1nc2ccccc2n1CC(=O)Nc1ccccc1C(=O)O`, the “activity change, negative = inhibition” value was inactive: -3.76%.

For the compound `O=C(Nc1ccc(F)c(Cl)c1)C1CCCN(S(=O)(=O)c2cccc3nsnc23)C1` (stereo unspecified), the “activity change, negative = inhibition” value is inactive: -12.8%.

Turning to `CC1CCN(C(=O)Cn2c(=O)n(-c3ccc(Cl)cc3)c(=O)c3c4c(sc32)CCC4)CC1`, the “activity change, negative = inhibition” value was inactive: 31.6%.

Turning to `C[N+](C)(C)CC(=O)O`, the “activity change, negative = inhibition” value was inactive: -24.6%.

As for `CCOc1ccc2nc(NC(=O)c3nc(SC(C)C)ncc3Cl)sc2c1`, the outcome was inactive.

Take `CCc1cccc2c(-c3ccccc3)nc(SCC(=O)Nc3ccc(OC)cc3)nc12`: the “activity change, negative = inhibition” value is inactive: -6.37%.

Turning to `CCOc1ccc(CCNC(=O)CSCc2nc(-c3cccc(C)c3)oc2C)cc1OCC`, the “activity change, negative = inhibition” value is inactive: 3.81%.

`CN(C)S(=O)(=O)N1CCC(N2CCN(Cc3ccc(F)cc3)C(=O)C2=O)CC1`: the “activity change, negative = inhibition” value is inactive: 5.03%.

Regarding `N#Cc1ccccc1Cn1c(SCC(=O)NCc2ccccc2)nc2ccccc21`, the “activity change, negative = inhibition” value was inactive: -5.21%.

On to `CN(C)S(=O)(=O)c1ccc(C(=O)N(Cc2cccnc2)c2nc3c(F)cc(F)cc3s2)cc1`, for which the “activity change, negative = inhibition” value was inactive: 6.47%.

As to `CC(C)N(Cc1ccccc1)S(=O)(=O)c1ccc(N2CCCCS2(=O)=O)cc1`, the “activity change, negative = inhibition” value was inactive: 6.6%.

For `Cc1cc2nn(-c3ccccc3)nc2cc1NC(=O)Cc1ccc(Cl)cc1`, the “activity change, negative = inhibition” value was inactive: -2.05%.

For the compound `O=C(Cn1c(=O)c2cccn2c2ccc(F)cc21)NCc1cccc(Cl)c1`, the “activity change, negative = inhibition” value was inactive: -4.34%.

Consider `COc1ccc(-n2ccn(CC(=O)Nc3ccccc3C(F)(F)F)c(=O)c2=O)cc1OC`, for which the “activity change, negative = inhibition” value was inactive: -4.27%.

Take `CCc1ccc(-n2c(CCC(=O)O)ccc2-c2cccs2)cc1`: the “activity change, negative = inhibition” value is inactive: 6.91%.

With `Cc1c(Cl)cccc1NC(=O)CSc1nc(=O)n(CCN2CCOCC2)c2c1CCC2`, the outcome was inactive.

As for `Cc1ccccc1NC(=O)Cn1c(=O)n(CCCCCC(=O)NCc2ccc3c(c2)OCO3)c(=O)c2sccc21`, the “activity change, negative = inhibition” value was inactive: -15.6%.

Take `CCOc1ccc(NC(=O)c2sc3nc(-c4ccc(OC)cc4)cn3c2C)cc1`: the “activity change, negative = inhibition” value is inactive: -7.26%.

Turning to `CC(=O)N1CCc2c(sc3c2c(=O)n(CCc2ccccc2)c(=O)n3Cc2ccc(F)cc2)C1`, the result was inactive.

As for `COc1cc(NC(=O)C2CCCN(S(=O)(=O)c3cn(C)cn3)C2)cc(OC)c1` (stereo unspecified), the “activity change, negative = inhibition” value was inactive: 2.81%.

As for `COc1ccc(-c2nsc(NC(=O)c3ccccc3Br)n2)cc1`, the “activity change, negative = inhibition” value is inactive: -20.4%.

Consider `Cc1ccc(Nc2ccc(N3CCN(C(=O)c4ccc([N+](=O)[O-])cc4Cl)CC3)nn2)cc1`, for which the “activity change, negative = inhibition” value is inactive: -4.67%.

In the case of `CCOc1ccc(NC(=O)CCS(=O)(=O)c2cc3c4c(c2)CCN4C(=O)CC3)cc1`, the result was inactive.

For `CCc1ccccc1NC(=O)CCc1c(C)nc2cc(-c3ccccc3)nn2c1C`, the compound was classed as inactive.

As to `CC(=O)Nc1ccc(NCc2nnc3n2CCCCC3)cc1`, the compound was classed as inactive.

Regarding `CCOC(=O)c1cc2c(=O)n3ccccc3nc2n(CC(C)C)c1=NC(=O)C(C)Oc1ccccc1` (stereo unspecified), the compound was called inactive.

On to `O=C(NC1CC(=O)N(c2ccc(Cl)cc2)C1)C(=O)c1c[nH]c2ccccc12` (stereo unspecified), for which the “activity change, negative = inhibition” value is inactive: -7.99%.

With `Cc1nnc(N2CCN(C(=O)Nc3cc(F)ccc3F)CC2)c2nn(-c3ccc(Cl)cc3)c(C)c12`, the “activity change, negative = inhibition” value was inactive: 2.87%.

As to `CC(=O)c1cccc(NS(=O)(=O)c2cccc(S(=O)(=O)c3ccc(Br)cc3)c2)c1`, the “activity change, negative = inhibition” value was inactive: 1.85%.

Turning to `COc1ccc(N2CCN(C(=O)CSCc3ccc(C)cc3)CC2)cc1`, the “activity change, negative = inhibition” value is inactive: -1%.

On to `COc1ccc(-c2nc(CSCC(=O)N3CCN(c4ccccc4)CC3)c(C)o2)cc1`, for which the “activity change, negative = inhibition” value was inactive: 8.82%.

Take `O=c1[nH]c(SCc2c(F)cccc2Cl)nc2c1CCCC2`: the result was inactive.

In the case of `Cc1c(Cl)cccc1Nc1nn2c(=O)c3ccc(C(=O)N(C)Cc4ccccc4)cc3nc2s1`, the “activity change, negative = inhibition” value is inactive: 0.0587%.

On to `COc1ccc(NC(=O)c2cc3c(C)nn(-c4ccccc4)c3s2)c(OC)c1`, for which the compound was called inactive.

For `CCOc1cc(S(=O)(=O)NCCc2c(C)[nH]c3ccc(C)cc23)ccc1Br`, the “activity change, negative = inhibition” value is inactive: -18.4%.

Regarding `Cc1cc(C)cc(-n2c(SCC(=O)NC3CCCCC3)nc3c([nH]c4ccccc43)c2=O)c1`, the compound was called inactive.

In the case of `Cc1ccc(NC(=O)CCS(=O)(=O)c2ccc3c(c2)oc(=O)n3C)c(Br)c1`, the compound was classed as inactive.

Consider `Cc1ccc2nc(COc3cccc(NC(=O)COc4ccc(F)cc4)c3)cc(=O)n2c1`, for which the “activity change, negative = inhibition” value was inactive: -11.2%.

For the compound `O=C(Nc1cccc(-c2nc3ccccc3o2)c1)c1cccc2c(Cl)cccc12`, the “activity change, negative = inhibition” value is inactive: 1.89%.

As to `COCCNC(=O)c1[nH]c2cc(C)ccc2c1Sc1ccc(Cl)cc1`, the “activity change, negative = inhibition” value was inactive: 16.8%.

Take `CC(C)(C)OC(=O)N1CCC(c2c(C(=O)Nc3ccc4c(c3)OCO4)cnn2-c2ccccc2)CC1`: the “activity change, negative = inhibition” value was inactive: -15.9%.
